According to the supplement of paper PMC11417369:
± gives the standard deviation of the averaged measurements. The list shows a part of the results.

Test system: PfAP2-LT AP2 domain (GST-tagged)
Test: gcPBM binding intensity (ln(normalized median fluorescence intensity)); higher = stronger DNA binding
Method in brief: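 Alexa488 anti-GST antibody, scanned at 488 nm, detected GST-tagged P. falciparum DNA-binding domains that had been expressed in E. coli and incubated for 1 h on an Agilent 4 × 180k array. The array carried primer-extended double-stranded 36-bp intergenic genomic probes and negative controls. Binding intensity is the highest Masliner-normalised natural-log median intensity across replicate spots of either orientation of each probe.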

Row | Sequence | gcPBM binding intensity (ln)
1 | ATGTTATATTTTTTTATACACACTGGGATATATAAA [CACACA_site6244] | 8.74 ± 0.39
2 | TTCATTGTGTTAACGGTGCATATATTTTTTCACCGT [GTGCAC_site9464] | 9.03 ± 0.47
3 | CATTAATTTAATAAATGTACATAAAATATATATTAT [XGTACX_site8085] | 8.58 ± 0.37
4 | TAAAATTTACAACACTGTACTTGAATTTATCTTTAA [XGTACX_site241] | 8.56 ± 0.53
5 | GCAGTATGCGATCAGTGTACGAGTTATTTTATAAAA [XGTACX_site4764] | 8.61 ± 0.54
6 | AAATGCGTATATAACGCATGTATAAGAACATTTTTT [TGCATGCA_site225] | 8.83 ± 0.44
7 | TTATAATCTATACATATATATGTATGTATGTCTCAA [CACACA_negctrl_site1702] | 8.9 ± 0.47
8 | ACATCATTTTTATGTACACACACATATACGTTGAAT [CACACA_site5095] | 9.55 ± 0.26
9 | GAAGTATTATTAAAGCTGCACTTTTCTAAAATAAAC [GTGCAC_site9429] | 8.46 ± 0.5
10 | ATATTACAAATATAATGTACAAAATATAAATATGCA [XGTACX_site8106] | 8.89 ± 0.37
11 | GTCCTTACTAATTAATTTTAGGCCATATAGTTTGTC [XGTACX_negctrl_site199] | 8.93 ± 0.49
12 | CTAATATATGTATGCACACACAATATATACATATTT [CACACA_site3360] | 9.37 ± 0.37
13 | GTTATACACATATATACACACATATGTAAATATATA [CACACA_site9080] | 9.15 ± 0.35
14 | CATACGTTCTAATATATACACACCTGGTATTAATTA [CACACA_site2221] | 8.88 ± 0.41
15 | CTATAATGTTTCTTTCAACACACAAAAAATGAACAC [CACACA_site8438] | 8.84 ± 0.45
16 | ATTGCGTGATAATAATGTACAAAAAGTAATTTATAT [XGTACX_site8339] | 8.86 ± 0.44
17 | TCATTCTAAATATAAACACACATAAATATATACATT [CACACA_site3354] | 8.78 ± 0.37
18 | AATATATAATTTTTAACACACAAAAAAAAAAAAAAT [CACACA_site3581] | 8.87 ± 0.47
19 | AAAAAAAAAAAAAAAACACACACATATAATATATTT [CACACA_site8369] | 9.15 ± 0.33
20 | GGTACGTATTTCAATGCATGTCCATGTACATATAAA [TGCATGCA_site208] | 8.85 ± 0.29
21 | TTTTTATTTATATGTATACACACTTTAATTAAAAGT [CACACA_site2525] | 9 ± 0.54
22 | TGTTATATATAAATTTGTACACATAAATATTTTTAC [XGTACX_site5873] | 8.71 ± 0.5

Row | Sequence | gcPBM binding intensity (ln)
23 | AATAAAAAAAAATGCACACATATATATATATATATA [CACACA_site2421] | 9.83 ± 0.35
24 | CAGAATATATTCTATACATGCAATAGGAAATGTAGC [TGCATGCA_site110] | 8.96 ± 0.38
25 | AAAAAAAAAAAAAAAAGTACAAAAATATATATGCAT [XGTACX_site8392] | 8.65 ± 0.51
26 | TATGCACAGAAACACACACACACAACCAAAAAATAA [CACACA_site5425] | 9.9 ± 0.33
27 | TTTTTATATATATGTATAAATATTTTTTCTATTTAT [XGTACX_negctrl_site606] | 8.46 ± 0.49
28 | AAATTTTCTTAAGGTTGTACTTTTTGAAAATAATCT [XGTACX_site4894] | 8.29 ± 0.4
29 | TGTAGTCTGGAGAAACGTACATAGTATCTGGTAGCT [XGTACX_site2538] | 8.91 ± 0.42
30 | AATGTGTAGGTAAGATAATTTTTGTTTTTTTATTTG [CACACA_negctrl_site424] | 8.68 ± 0.43
31 | ATATTTATAATATAGAGTACTTACTAAGTTATGGGT [XGTACX_site5405] | 8.68 ± 0.42
32 | TTAAACTTGAAACACACACACACACCCATATAAAAA [CACACA_site758] | 10.1 ± 0.064
33 | AACTCACGAGGACACACACACATATATATATATATA [CACACA_site4711] | 10.38 ± 0.035
34 | TATAATATATCTGTAACACACAAAAGTTATATACTT [CACACA_site5578] | 8.8 ± 0.4
35 | TTTTTTTCTCTCTCTACACACAAGGTTTAATTTAAA [CACACA_site1690] | 8.73 ± 0.41
36 | ACATACATACATACATACATACATACATACATACAT [XGTACX_negctrl_site315] | 9.3 ± 0.27
37 | TCATAGGGGTAGAAGGTGCAATAAAAAAGAAGAAAA | 8.65 ± 0.75
38 | GAATTTCAACAAAGTAGTACATTTTATAGTAATTGG [XGTACX_site2319] | 8.57 ± 0.42
39 | ATAAATATGTTCTGCACACAAATAAGTGTTTGAAGT [CACACA_site3892] | 9.05 ± 0.33
40 | TAATGGAATAAAAATTGTACATATTTTTTTTTTTTT [XGTACX_site7669] | 8.45 ± 0.36
41 | AATAGGTGCCTTTTTTCACACACATGTCAACTAAAT [CACACA_site8846] | 9.34 ± 0.36
42 | TTTGGTAAGCGTGTCGCATGTAGAACAAGTCTACAT [TGCATGCA_site577] | 8.73 ± 0.35
43 | ATGAAATTATTATATAAACACACATTTATTTTATTT [CACACA_site8597] | 8.65 ± 0.49
44 | ATTCTTTTTTTTTTCTTATATTCTAATCACCACCTT [XGTACX_negctrl_site179] | 8.78 ± 0.64

Row | Sequence | gcPBM binding intensity (ln)
45 | CATATAAATAAACACACACACACATATATATATATA [CACACA_site5309] | 10.06 ± 0.064
46 | TATATATATATTTTTGGTACAGATATTTTCTTCTCT [XGTACX_site4432] | 9.06 ± 0.4
47 | AATATATATATATATTGTACACACATTTATGCATAT [XGTACX_site6856] | 9.43 ± 0.28
48 | TTACAACCATAAAATGCATGTAAATGACAAAAAAAA [TGCATGCA_site944] | 8.79 ± 0.4
49 | ATTAAAATGGAGTATTAATATGATATATATATATAT [GTGCAC_negctrl_site509] | 9.19 ± 0.25
50 | AGGAACATTTACGCCCCACACACCTACCAACAAAAA [CACACA_site3827] | 9.59 ± 0.23
51 | TAAATACAGACATACACACATACACCCACATATATA [CACACA_site547] | 9.76 ± 0.38
52 | GTTAATTTAATTATATGTACGAAAAAATACGTTATA [XGTACX_site1306] | 8.45 ± 0.41
53 | TTTTTATTTTTTTATTTCTTATCAAATAAAATATAT [XGTACX_negctrl_site537] | 8.29 ± 0.51
54 | ACATAATATACTATTGTGCACATATATATATATATA [GTGCAC_site9761] | 9.72 ± 0.33
55 | ACCCTTCAATTTAATTGTACAAGAAAAAAAAAAAAA [XGTACX_site2927] | 8.39 ± 0.54
56 | TGCTCAAACTTTACAAATGAACGAATATAAAAAAAG [CACACA_negctrl_site541] | 8.54 ± 0.5
57 | AAATAATCATAAAATAAACACACATATATAAATATA [CACACA_site7981] | 8.89 ± 0.42
58 | TTACAAAAAGGTAATTTACACACTGCATATAGGAAT [CACACA_site8956] | 8.91 ± 0.43
59 | TCTTAATATGGTAATACACACTAATATACTTTTGTT [CACACA_site4969] | 8.9 ± 0.37
60 | TAATTTATCCTATAATGTACTTATAAAATATATCAT [XGTACX_site1460] | 8.53 ± 0.38
61 | ATGTACATAAACCGCACACATATAAAAAAATAAATA [CACACA_site5571] | 9.44 ± 0.38
62 | AGTCCATTTTATTATTGTACATATTAATTTATATCA [XGTACX_site672] | 9.1 ± 0.39
63 | ATTCAGAGTATATAAAAATTAATATATACATAATAT [CACACA_negctrl_site1782] | 8.63 ± 0.45
64 | TAGATATTTTTGAAAAGTACAAATTTTTAAAAATTA [XGTACX_site4420] | 8.07 ± 0.42
65 | GTATGATTACAAGAAAGTAGTCCACTTTAACAACAA [CACACA_negctrl_site1304] | 8.8 ± 0.4
66 | AATATTTTGTTATTTATTTAATCTAATATTACTATC [CACACA_negctrl_site4] | 8.67 ± 0.45

Row | Sequence | gcPBM binding intensity (ln)
67 | ATATATATATAAATATGTACATATATACATATATAC [XGTACX_site2374] | 8.89 ± 0.23
68 | ATTATAGAATATTGAAGTACAAAATTTAAAATAAGT [XGTACX_site1468] | 8.78 ± 0.41
69 | AAAAAAAAAAAATACACACAAACACAAATTAAATAA [CACACA_site3809] | 9.32 ± 0.32
70 | TAGGAAAATTACAAAAGTACTTGGCACATAATAATG [XGTACX_site6005] | 8.7 ± 0.42
71 | TATATATATATATATGCACACATTTATACAATTTTA [CACACA_site2986] | 9.57 ± 0.26
72 | ATCATATCCACCAAATGAATAATATAAAATAATATA [XGTACX_negctrl_site193] | 8.68 ± 0.43
73 | AAATAACATAATAAGGGTACATTAATTTCGATAATG [XGTACX_site835] | 8.77 ± 0.4
74 | TATTTTGTCATAGAACGTACTTATAAATATTTTTTT [XGTACX_site8424] | 8.54 ± 0.45
75 | ATAGAAGCTGTTGACGAAGAAAAAAAAAAAAAAAAA [CACACA_negctrl_site110] | 8.52 ± 0.57
76 | AGAAAAAAAAAAAAAAAACACACGGTACATCCAAAG [CACACA_site124] | 8.96 ± 0.39
77 | ATCAAATTATAATCATGTACAAATAAAAAAAAAAAA [XGTACX_site313] | 8.69 ± 0.5
78 | AAATATCTACAAATATGTACATATTTTTTTTGGCTT [XGTACX_site6301] | 8.76 ± 0.48
79 | AGAAAGTAAAGCTGTTGTACTATTATATATATTTTA [XGTACX_site8090] | 8.74 ± 0.43
80 | GTAATACCCAAACACACACACATACCCATATATATA [CACACA_site5510] | 10.1 ± 0.29
81 | TATAATATGTATATCTGTACATATTTTAAATCTAAT [XGTACX_site2426] | 8.49 ± 0.52
82 | AAGTACAATTCATGTATGCACTTTATTATATTTTAT | 8.79 ± 0.45
83 | AAGATAAAATAATAAAGTACACATATAAATTGAAAA [XGTACX_site2113] | 8.89 ± 0.55
84 | TTTCTTTTTAAATAATAATGTATAATAAAAAGTTCA [TGCATGCA_negctrl_site195] | 8 ± 0.37
85 | TTTGTTTGATATATGTGTACATATATATATTATGCT [XGTACX_site3522] | 8.99 ± 0.35
86 | TATTATAGTATATATTGTACATATATATATTTTTTA [XGTACX_site8831] | 8.62 ± 0.41
87 | ATAATAATATATAGTACACACAAAAATGGAAGTAAA [CACACA_site3318] | 9.24 ± 0.54
88 | TGTTATGAGAACAGCACACAAGCTACATCATATATA [CACACA_site870] | 8.82 ± 0.4
